From a collection of fitness landscapes (doi:10.1038/s41467-024-54723-y)
Whole data set: some 18,000 sequences, median “TetR repression strength (sort-seq, GFP reporter)” near 0.23, cut for the highest 2% near 0.68. The list shows a part of the results.

Biological target: TetR (class B, Tn10) (UniProt P04483)
Experiment: TetR repression strength (sort-seq, GFP reporter) (relative to tetO2 = 1); higher = stronger repression
Conditions: E. coli
Procedure, shortened: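 Repression strength is the top bin index plus one minus the read-weighted mean bin, relative to the unaltered operator's value. A low-copy library in E. coli SIG10-MAX randomized eight operator positions between a constitutive promoter and sfGFP, with TetR expressed constitutively; cells grew 5 h at 37 °C in LB with 50 µg/mL chloramphenicol and 10^6 were FACS-sorted into 13 bins that were each Illumina-sequenced. Three independent transformations were averaged, keeping only members with ≥30 reads in all replicates and CV ≤0.5.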

Sequence of UniProt P04483 (P04483 whole entry): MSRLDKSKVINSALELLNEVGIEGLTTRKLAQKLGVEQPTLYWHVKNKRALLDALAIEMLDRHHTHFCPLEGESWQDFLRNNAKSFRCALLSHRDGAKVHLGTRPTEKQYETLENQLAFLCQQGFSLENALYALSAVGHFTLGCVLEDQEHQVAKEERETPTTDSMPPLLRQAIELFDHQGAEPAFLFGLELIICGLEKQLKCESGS

Row | Sequence | TetR repression strength
1 | TCCCAGATAGTTTACGAGA | 0.311
2 | TCCCGGGCAGTGCTGGAGA | 0.323
3 | TCCCTCGTAGTGTTCGAGA | 0.0982
4 | TCCCTGAGAGTACTTGAGA | 0.12
5 | TCCCGTTAAGTGCGGGAGA | 0.183
6 | TCCCATATAGTAAGGGAGA | 0.179
7 | TCCCTTTCAGTTTGGGAGA | 0.925
8 | TCCCGGCTAGTCATTGAGA | 0.385
9 | TCCCTTGGAGTCACTGAGA | 0
10 | TCCCGAGCAGTTTATGAGA | 0.263
11 | TCCCGGCCAGTGGCGGAGA | 0.234
12 | TCCCAGTGAGTTATTGAGA | 0.284
13 | TCCCGCCGAGTCGAGGAGA | 0.36
14 | TCCCGGGGAGTGTCAGAGA | 0.377
15 | TCCCTAACAGTGAATGAGA | 0.46
16 | TCCCCCCGAGTTGGAGAGA | 0.309
17 | TCCCCCCGAGTGACCGAGA | 0.233
18 | TCCCATCAAGTGGGGGAGA | 0.167
19 | TCCCAACTAGTTGACGAGA | 0.317
20 | TCCCTTAAAGTAGGAGAGA | 0.0721
21 | TCCCACAAAGTACGGGAGA | 0.102
22 | TCCCAGGGAGTAGTTGAGA | 0.0889
23 | TCCCGGAGAGTAGGAGAGA | 0.155
24 | TCCCCGGGAGTTTTGGAGA | 0.232
25 | TCCCCGTAAGTGCTAGAGA | 0.378
26 | TCCCATTTAGTATGCGAGA | 0.207

Row | Sequence | TetR repression strength
27 | TCCCAATCAGTTTGAGAGA | 0.144
28 | TCCCGCGCAGTGTTTGAGA | 0.207
29 | TCCCAAAGAGTGTACGAGA | 0.133
30 | TCCCAGCTAGTGCGAGAGA | 0.0634
31 | TCCCAACGAGTGCGGGAGA | 0.366
32 | TCCCACCAAGTGGCGGAGA | 0.185
33 | TCCCACAAAGTATGAGAGA | 0.37
34 | TCCCCTGTAGTTGACGAGA | 0.0204
35 | TCCCAGGTAGTTCCTGAGA | 0.628
36 | TCCCAGTTAGTAAGAGAGA | 0.102
37 | TCCCACGTAGTCAGTGAGA | 0.0274
38 | TCCCGATCAGTTTTTGAGA | 0.0558
39 | TCCCTCGGAGTATGGGAGA | 0.181
40 | TCCCGGAGAGTATGCGAGA | 0.159
41 | TCCCGTACAGTGTTAGAGA | 0.284
42 | TCCCTTCGAGTAGTGGAGA | 0.371
43 | TCCCGGGGAGTGGGGGAGA | 0.3
44 | TCCCTATTAGTTTCCGAGA | 0.348
45 | TCCCAATGAGTATGAGAGA | 0.217
46 | TCCCATTGAGTGTACGAGA | 0.196
47 | TCCCGAGGAGTTGGCGAGA | 0.14
48 | TCCCAGCTAGTACTCGAGA | 0.18
49 | TCCCTCTAAGTAATGGAGA | 0.529
50 | TCCCGAGTAGTGAGAGAGA | 0.418
51 | TCCCATTGAGTGCCGGAGA | 0.301
52 | TCCCAGAAAGTGGTGGAGA | 0.138

Row | Sequence | TetR repression strength
53 | TCCCTGTTAGTGGGGGAGA | 0.737
54 | TCCCTCGGAGTCAACGAGA | 0.249
55 | TCCCGTGCAGTGTTGGAGA | 0.67
56 | TCCCTATAAGTGGGTGAGA | 0.571
57 | TCCCTTGCAGTGAGGGAGA | 0.251
58 | TCCCCACGAGTCATTGAGA | 0.25
59 | TCCCTCTCAGTACATGAGA | 0.269
60 | TCCCTGCTAGTGCCTGAGA | 0.167
61 | TCCCCTCAAGTTAATGAGA | 0.126
62 | TCCCCTCTAGTGTCGGAGA | 0.216
63 | TCCCTGCGAGTGGGCGAGA | 0.197
64 | TCCCACGCAGTGAATGAGA | 0.275
65 | TCCCAAGAAGTGTGGGAGA | 0.0159
66 | TCCCCCAAAGTGGGGGAGA | 0.213
67 | TCCCAAGGAGTCTGGGAGA | 0.3
68 | TCCCGGTGAGTTGCTGAGA | 0.123
69 | TCCCCCAAAGTCGCAGAGA | 0.395
70 | TCCCGGGGAGTAGGGGAGA | 0.219
71 | TCCCTGAGAGTCCTCGAGA | 0.219
72 | TCCCCGGGAGTTCCGGAGA | 0.375
73 | TCCCGTCGAGTAATGGAGA | 0.27
74 | TCCCGGCTAGTGTAAGAGA | 0.328
75 | TCCCTCGGAGTGGCAGAGA | 0.182
76 | TCCCACGAAGTGCTCGAGA | 0.586
77 | TCCCTGCGAGTGGGTGAGA | 0.442
78 | TCCCCGCCAGTGTACGAGA | 0.233

Row | Sequence | TetR repression strength
79 | TCCCAGGCAGTACGAGAGA | 0.186
80 | TCCCAGTCAGTCGCTGAGA | 0.221
81 | TCCCAGCTAGTCGAGGAGA | 0.185
82 | TCCCACTGAGTTTATGAGA | 0.277
83 | TCCCCCCGAGTGGGGGAGA | 0.244
84 | TCCCCTAAAGTGCGTGAGA | 0.39
85 | TCCCGCGGAGTGGGAGAGA | 0.0921
86 | TCCCGAGAAGTTCAAGAGA | 0.311
87 | TCCCACATAGTGGTCGAGA | 0.138
88 | TCCCCTCGAGTAAACGAGA | 0.335
89 | TCCCGGATAGTTGGAGAGA | 0.393
90 | TCCCACTGAGTTGTGGAGA | 0.162
91 | TCCCCGTTAGTGCAGGAGA | 0.258
92 | TCCCTGCCAGTAGGCGAGA | 0.207
93 | TCCCGGTTAGTGTGGGAGA | 0.217
94 | TCCCAACGAGTCCAGGAGA | 0.135
95 | TCCCGTCAAGTGCTGGAGA | 0.346
96 | TCCCTGTCAGTAGCAGAGA | 0.278
97 | TCCCTTGGAGTCGAAGAGA | 0.107
98 | TCCCTCGGAGTAGCGGAGA | 0.221
99 | TCCCCCAGAGTGAGCGAGA | 0.0671
100 | TCCCAGCTAGTTGTAGAGA | 0.216
101 | TCCCCACAAGTCGGGGAGA | 0.182
102 | TCCCAAGAAGTGCAAGAGA | 0.383
